Molecular target: V5 epitope-tagged wild-type epidermal growth factor receptor (EGFR) (UniProt P00533)
Assay: proximity ligation

Substance: S2056A-mutated DNA-PKcs ([…]A) (a stretch of the chain, chain not printed) (enzyme)
- fold IR-induced increase in nuclear PLA complexes relative to untreated cells: 40 fold

Reference: PMC3475795
